# Among all 94,000 compounds or so, about 4,000 (4.3%) were called active. The inconclusive results got no clear call from the source; some entries with a clear call stand among them for comparison. Calls come from the whole dose curve; as a rule, active = well fitted inhibition curve with a large enough effect; inconclusive = small, poorly fitted or top-dose-only effect; inactive = no such curve, though single readings can be large or run the other way. Potencies beside an inconclusive call are fits to weak or partial responses and may not hold up.
# Assay: Cytotoxic Profiling in NIH 3T3 Cell Line of Diverse Libraries Using Quantitative High-Throughput Screening; note: nearly all actives have a fitted effect of over 55% in size
# Conditions: NIH 3T3 viability, CellTiter-Glo ATP luminescence, 48-72 h; activity change, negative = cytotoxicity: at 96.7 µM (top of the series); series mostly up to 96.7 µM
# How it was run: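 NIH 3T3 cells at 400 cells/well received 23 nL of compound by pintool and were incubated 48 or 72 h at 37 °C. Viability was read as ATP-coupled CellTiter-Glo luminescence.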
# % is set by controls: 0 for no effect and ±100 for the full control effect; potency is the fitted concentration of half-maximal effect; tags give direction and shape of the fitted curve.
Structure (SMILES),"activity change, negative = cytotoxicity",Potency,outcome
COc1ccc(CCC(=O)N2CCC3(CC2)CC(N(C(C)=O)C2CC2)CCO3)cc1 (stereo not given),inactive: -14.5%,,
CNC(=O)C1CCCN(c2ccnc3ccnn23)C1 (stereo not given),inactive: -2.78% [at 138 µM],,
CCCCOc1ccc(C(=O)N2CCC(c3n[nH]c(=O)n3-c3ccccc3)CC2)cc1,,"inconclusive: 44.7 µM [inhibitor, partial curve, poor fit]",
COc1cccc(CN2Cc3cc(NC(=O)c4cc(OC)cc(OC)c4)ccc3OCC2=O)c1,,"inconclusive: 35.5 µM [inhibitor, partial curve, poor fit]",
CCN(Cc1cccc(OCCO)c1)CC1CCCN(CCc2cccc(OC)c2)C1 (stereo not given),,"inconclusive: 79.4 µM [inhibitor, partial curve, poor fit]",
O=C(c1ccc(Cl)nc1)N1CCC(C(=O)N2CCCC2c2nc3ccncc3[nH]2)CC1 (stereo not given),inactive: -12.7%,,
Cc1ccc(-c2c(C(=O)NCCc3ccccc3F)nc3sccn23)cc1,,"inconclusive: 28.2 µM [inhibitor, full curve, poor fit]",
Cn1nc(C2CCCNC2)c2c(C(=O)NC3CC3)cc(C3CC3)nc21 (stereo not given),,,inactive
Cn1ncc2c(C(=O)NC3CC3)cc(-c3ccc(Cl)cc3Cl)nc21,,"inconclusive: 44.7 µM [inhibitor, partial curve, poor fit]",
Cc1nnc(-c2cc(-c3ccccc3Oc3ccccc3)ccn2)n1Cc1cccnc1,,"inconclusive: 79.4 µM [inhibitor, partial curve, poor fit]",
CCOc1cccc(-c2nnc(CCC(=O)N3CCC(Cc4ccccc4)CC3)c(=O)[nH]2)c1,,"inconclusive: 44.7 µM [inhibitor, partial curve, poor fit]",
Cc1nn2c(c1-c1cccnc1N1CCOCC1)N(Cc1ccccc1F)CCC2,,"inconclusive: 22.4 µM [inhibitor, full curve, poor fit]",
COc1ccc(CNC(=O)Cn2c(-c3ccccc3)nc(C)c(CCO)c2=O)cc1,,"inconclusive: 70.8 µM [inhibitor, partial curve, poor fit]",
COCC1CN(Cc2ccc(C(C)C)cc2)CC12CCNCC2 (stereo not given),,"inconclusive: 50.1 µM [inhibitor, partial curve, poor fit]",
CN(C)CCNC(=O)c1nc2nc(-c3ccccc3)c(-c3ccc(Cl)cc3)cc2n1C,,active: 25.1 µM,
Cc1ccc(C#N)c(N2CC[C@@]3(O)CCN(S(=O)(=O)N(C)C)C[C@H]3C2)n1,,"inconclusive: 50.1 µM [inhibitor, partial curve, poor fit]",
CCC(c1cccs1)N1C(=O)[C@H]2CN(S(=O)(=O)c3ccc(F)cc3F)C[C@H]2C1=O (stereo not given in full),inactive: -26.3%,,
COc1ccc(C(=O)NC2CCN(C(=O)c3ccccc3-c3ccc(OC)nn3)CC2)cc1,inactive: -16.4%,,
CN(Cc1ccc(C2CCCCO2)s1)CC1CCN(CCc2ccc(F)cc2)CC1 (stereo not given),,"inconclusive: 39.8 µM [inhibitor, full curve, poor fit]",
COc1ccc(C(C)NC(=O)c2noc(-c3ccc(C)cc3)n2)cc1 (stereo not given),,"inconclusive: 70.8 µM [inhibitor, single point]",
Cn1cnc(C(=O)N2CCC3(CC2)CC(N(Cc2ccc(F)cc2)C2CC2)CCO3)c1 (stereo not given),inactive: -15.9%,,
CN(C)c1cccc(-c2cc3c(cn2)CN(Cc2ccncc2)CCN3)c1,,"inconclusive: 25.1 µM [inhibitor, full curve]",

Structure (SMILES),"activity change, negative = cytotoxicity",Potency,outcome
O=C(CCn1cccn1)N1CCC2(CC1)CN(Cc1ccccc1)CC2CO (stereo not given),,"inconclusive: 79.4 µM [inhibitor, single point]",
O=C(Nc1ccc2oc(-c3ccccc3)nc2c1)C1CCN(c2cnn(Cc3ccccc3)c(=O)c2)C1 (stereo not given),inactive: -1.38%,,
CCOC(=O)C1CCN(C(=O)C2COC3(CCCCC3)N2C(=O)c2ccc(CC)cc2)CC1 (stereo not given),inactive: -9.52%,,
O=c1c2c(CO)c(-c3ccc(F)cc3)nn2ccn1CCOc1ccccc1,,"inconclusive: 44.7 µM [inhibitor, partial curve, poor fit]",
CS(=O)(=O)c1cnc(NCCN2CCOCC2)nc1C1CCCNC1 (stereo not given),inactive: -2.38%,,
CNC(=O)CCn1ncc2cc(OCc3ccccc3-c3cccnc3OC)ccc21,,"inconclusive: 100 µM [inhibitor, single point]",
CCOc1ccc2c(n1)CCN(C(=O)Nc1cc(C)cc(C)c1)C2,,"inconclusive: 35.5 µM [inhibitor, partial curve]",
COc1ccc(C2(C(=O)N3CC(CO)C4(CCNCC4)C3)CCCCC2)cc1 (stereo not given),inactive: -3.82%,,
CCc1nc2c(c(-c3ccc(Cl)cc3)n1)CN(Cc1ccc(OC(F)(F)F)cc1)CC2,,active: 25.1 µM,
COc1ccc(NC(=O)N2CCC3(CC2)SCC(=O)N3c2ccc(OC)cc2)cc1,,"inconclusive: 50.1 µM [inhibitor, partial curve, poor fit]",
O=C(NC1CC1)c1nc2sccn2c1-c1ccncc1,inactive: -20.9% [at 138 µM],,
CC(C)(Oc1nn(CCN2CCOCC2)c2ccccc12)C(=O)NCc1ccncc1,,"inconclusive: 100 µM [inhibitor, single point]",
COc1ccc(-c2cnc3[nH]cc(CC(=O)N4CCCC4)c3c2)cc1,,active: 7.94 µM,
CN1[C@@H](CCC(=O)NCc2ccccc2)CNC(=O)[C@@H]2[C@H]1CCN2C1CCOCC1,,,inactive [at 138 µM]
Cc1ccc(-n2c(C3CCN(C(=O)c4ccc(C(C)(C)C)cc4)CC3)n[nH]c2=O)cc1,,"inconclusive: 56.2 µM [inhibitor, partial curve, poor fit]",
COCC(=O)N[C@H]1C[C@@H](c2nc(-c3ccc(Cl)cc3)no2)N(C)C1,,"inconclusive: 112 µM [inhibitor, single point]",
Cc1cc2c(c(=O)n(-c3ccc(F)cc3)c(=O)n2CC(=O)Nc2ccc(F)cc2)n1C,inactive: -19.3%,,
Cc1cnc(C(=O)N2CCC3(CC2)CC(N(Cc2ccccc2)C2CC2)CCO3)cn1 (stereo not given),,"inconclusive: 35.5 µM [inhibitor, partial curve, poor fit]",
CCn1cnnc1CC1CCCN(C(=O)Nc2ccc(C(=O)OC)cc2)C1 (stereo not given),inactive: -26.1%,,
CCC1Oc2ccc(NC(=O)COc3ccccc3)cc2CN(Cc2ccc(OC)cc2)C1=O (stereo not given),,"inconclusive: 11.2 µM [inhibitor, full curve, poor fit]",
O=C(Nc1ccc2c(c1)OCCO2)N1CCC2(CC1)CC(Cc1ccccc1)CCO2 (stereo not given),,"inconclusive: 50.1 µM [inhibitor, partial curve, poor fit]",
COc1ccccc1-c1ccc(CN2CCCCC2C(=O)NCc2ccc3c(c2)OCO3)cc1 (stereo not given),,"inconclusive: 20 µM [inhibitor, full curve]",

Structure (SMILES),"activity change, negative = cytotoxicity",Potency,outcome
Cn1ncc2c(C(=O)NCCCc3ccccc3)cc(-c3ccc(Cl)cc3)nc21,,"inconclusive: 31.6 µM [inhibitor, full curve]",
c1ccc(CCN(Cc2ccccc2)[C@H]2C[C@H]3CCOC[C@@]3(c3ccccc3)C2)cc1,,"inconclusive: 56.2 µM [inhibitor, partial curve, poor fit]",
COc1ccc(OCc2nc(C3CN(C(=O)Cc4c[nH]c5ccccc45)C3)no2)cc1,,"inconclusive: 44.7 µM [inhibitor, partial curve, poor fit]",
COc1cccc(CNC(=O)c2cc(-c3ccsc3)nc3c2cnn3C)c1,,active: 25.1 µM,
Cc1ncsc1CN1C(=O)CO[C@H](c2ccc(NS(C)(=O)=O)cc2)[C@H]1CO,inactive: -15% [at 174 µM],,
Cc1cccc(CN2CCCCCCNC(=O)CC2c2ccccc2)c1 (stereo not given),inactive: -18.9%,,
C=CCN(CC=C)Cc1c(C(=O)N2CCN(C3CCCCC3)CC2)nc2ccccn12,inactive: -20.4%,,
Cc1cccc(NC(=O)CC2CCCN(c3cnn(CC4CC4)c(=O)c3)C2)c1 (stereo not given),,active: 25.1 µM,
CCC1Oc2ccc(NC(=O)c3ccccc3OC)cc2CN(Cc2ccc(OC)cc2)C1=O (stereo not given),,"inconclusive: 31.6 µM [inhibitor, full curve]",
O=C(Nc1ccccc1)N1CCCCC1c1noc(COc2ccc(F)cc2)n1 (stereo not given),,"inconclusive: 44.7 µM [inhibitor, partial curve, poor fit]",
O=C(Nc1ccccc1)N[C@H]1[C@H](O)[C@@H](Oc2ccccc2)[C@@H]2OC[C@H]1O2,inactive: -25% [at 174 µM],,
Cc1ccc(-c2cc(C(=O)NCc3c(C)cc(C)[nH]c3=O)c3c(c2)N(C)CCO3)cc1,,"inconclusive: 89.1 µM [inhibitor, partial curve, poor fit]",
Cc1ccccc1N1CCCN(Cc2ccccc2OCCO)CC1,,"inconclusive: 12.6 µM [inhibitor, full curve, poor fit]",
O=C(NCc1ccncc1)c1ccc2c(c1)OCCN(c1ccccc1)C2,,"inconclusive: 56.2 µM [inhibitor, partial curve, poor fit]",
COc1ccc(CNC(=O)Cn2cccc2-c2nc(-c3ccccc3)no2)cc1,inactive: -0.602%,,
O=C(Cc1cccnc1)N1CC(Oc2ccccc2-c2nc(-c3cnccn3)no2)C1,inactive: -24.4%,,
O=C(C1CCOC1)N1CC(Oc2cccc(-c3nc(-c4ccccc4)no3)c2)C1 (stereo not given),,"inconclusive: 50.1 µM [inhibitor, partial curve, poor fit]",
CN(C)c1ccc(-n2cnc3cccnc32)cc1,,"inconclusive: 100 µM [inhibitor, partial curve, poor fit]",
O=C(NCCOc1ccccc1)c1cnc2c(c1)N(C(=O)Cc1cccc(C(F)(F)F)c1)CCC2,,"inconclusive: 70.8 µM [inhibitor, single point]",
CCOC(=O)C1(C/C=C/c2ccccc2)CCCNC1 (stereo not given),,"inconclusive: 31.6 µM [inhibitor, full curve]",
Cc1cccc(N2Cc3c(ncnc3N3CCC(c4ccccc4)CC3)N(C)CC2=O)c1,,"inconclusive: 44.7 µM [inhibitor, partial curve, poor fit]",

# From PubChem BioAssay AID1345082 (National Center for Advancing Translational Sciences (NCATS), 2018)
